# This is one part of the list. Repeats are few or missing, and single values can be far off.
# Tested on: UACC62
# Assay: cell count relative to DMSO control; melanoma cells; higher = more viable cells
# Details: library dose: low library concentration; 72 h
# 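Further: cell number obtained by counting DAPI-stained nuclei in high-throughput microscope images with image analysis software, screen run in 1,536-well plates.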
row,SMILES,cell count [%]
1,"CC(C)C[C@H](NC(=O)[C@H](Cc1ccccc1)NC(=O)c1cnccn1)B(O)O [Bortezomib] + O=c1cc(-c2cccc3c2Sc2ccccc2S3)oc(N2CCOCC2)c1 [KU55933] (first compound 0.001 µM, partner dose 1 µM)",77.3
2,"COc1ccc(C2=N[C@@H](c3ccc(Cl)cc3)[C@@H](c3ccc(Cl)cc3)N2C(=O)N2CCNC(=O)C2)c(OC(C)C)c1 [Nutlin-3] + CN(C)S(=O)(=O)c1ccc2c(c1)/C(=C/c1cc3c([nH]1)CCCC3)C(=O)N2 [SU6656] (first compound 0.1 µM, partner dose 0.4 µM)",83.9
3,"Cc1cc(Nc2cc(N3CCN(C)CC3)nc(/C=C/c3ccccc3)n2)n[nH]1 + CCc1ccc(CCOc2ccc(CC3SC(=O)NC3=O)cc2)nc1 [pioglitazone] (first compound 0.04 µM, partner dose 2 µM)",97.5
4,"Cn1c(=O)n(-c2ccc(C(C)(C)C#N)cc2)c2c3cc(-c4cnc5ccccc5c4)ccc3ncc21 + O=C(Nc1ccccc1)c1cc([N+](=O)[O-])ccc1Cl [GW9662] (first compound 0.004 µM, partner dose 2 µM)",89.8
5,"Cc1cn(-c2cc(NC(=O)c3ccc(C)c(Nc4nccc(-c5cccnc5)n4)c3)cc(C(F)(F)F)c2)cn1 [nilotinib] + COc1cc2c(Oc3ccc4[nH]c(C)cc4c3F)ncnc2cc1OCCCN1CCCC1 [cediranib] (first compound 0.2 µM, partner dose 0.4 µM)",99
6,"Cc1cc(Nc2cc(N3CCN(C)CC3)nc(/C=C/c3ccccc3)n2)n[nH]1 + OCCn1cc(-c2cnc3nnn(Cc4ccc5ncccc5c4)c3n2)cn1 [PF04217903] (first compound 0.04 µM, partner dose 1 µM)",92.8
7,"CC(C)C[C@H](NC(=O)[C@H](Cc1ccccc1)NC(=O)c1cnccn1)B(O)O [Bortezomib] + NCC(=O)Nc1ccc(-n2nc(C(F)(F)F)cc2-c2ccc3c(ccc4ccccc43)c2)cc1 [OSU03012] (first compound 0.001 µM, partner dose 1 µM)",94.8
8,"Cn1c(=O)n(-c2ccc(C(C)(C)C#N)cc2)c2c3cc(-c4cnc5ccccc5c4)ccc3ncc21 + COc1cc(Nc2ncc(F)c(Nc3ccc4c(n3)NC(=O)C(C)(C)O4)n2)cc(OC)c1OC [Tamatinib] (first compound 0.004 µM, partner dose 0.4 µM)",69.4
9,"COc1ccc(C2=N[C@@H](c3ccc(Cl)cc3)[C@@H](c3ccc(Cl)cc3)N2C(=O)N2CCNC(=O)C2)c(OC(C)C)c1 [Nutlin-3] + CCN(CC)CCCCNc1ncc2cc(-c3cc(OC)cc(OC)c3)c(NC(=O)NC(C)(C)C)nc2n1 [PD173074] (first compound 0.1 µM, partner dose 0.1 µM)",72.9
10,"CC(C)C[C@H](NC(=O)[C@H](Cc1ccccc1)NC(=O)c1cnccn1)B(O)O [Bortezomib] + CN(C)S(=O)(=O)c1ccc2c(c1)/C(=C/c1cc3c([nH]1)CCCC3)C(=O)N2 [SU6656] (first compound 0.001 µM, partner dose 0.4 µM)",56.1
11,"Cc1cn(-c2cc(NC(=O)c3ccc(C)c(Nc4nccc(-c5cccnc5)n4)c3)cc(C(F)(F)F)c2)cn1 [nilotinib] + COc1ccc(COc2ccc(Cc3cnc(N)nc3N)cc2OC)cc1 [GW2580] (first compound 0.2 µM, partner dose 1 µM)",105
12,"CC(C)C[C@H](NC(=O)[C@H](Cc1ccccc1)NC(=O)c1cnccn1)B(O)O [Bortezomib] + Oc1cc(-c2nc(-c3ccccc3)[nH]c2-c2ccncc2)ccc1Cl [L779450] (first compound 0.001 µM, partner dose 0.2 µM)",55.1
13,"CC(C)C[C@H](NC(=O)[C@H](Cc1ccccc1)NC(=O)c1cnccn1)B(O)O [Bortezomib] + Cc1cc(N2CCOCC2)cc2[nH]c(-c3c(NC[C@@H](O)c4cccc(Cl)c4)cc[nH]c3=O)nc12 [BMS536924] (first compound 0.001 µM, partner dose 0.2 µM)",73.5
14,"Cn1c(=O)n(-c2ccc(C(C)(C)C#N)cc2)c2c3cc(-c4cnc5ccccc5c4)ccc3ncc21 + COc1cc2c(Oc3ccc4[nH]c(C)cc4c3F)ncnc2cc1OCCCN1CCCC1 [cediranib] (first compound 0.004 µM, partner dose 0.4 µM)",80.6
15,"Cc1cn(-c2cc(NC(=O)c3ccc(C)c(Nc4nccc(-c5cccnc5)n4)c3)cc(C(F)(F)F)c2)cn1 [nilotinib] + O=C1NC(=O)/C(=C/c2ccc(-c3ccc(F)cc3O)o2)S1 [AS252424] (first compound 0.2 µM, partner dose 1 µM)",109
16,"CC(C)C[C@H](NC(=O)[C@H](Cc1ccccc1)NC(=O)c1cnccn1)B(O)O [Bortezomib] + Cn1cc(/C=C2\C(=O)Nc3cccnc32)c2ccccc21 [GW441756] (first compound 0.001 µM, partner dose 0.4 µM)",71.5
17,"Cc1cc(Nc2cc(N3CCN(C)CC3)nc(/C=C/c3ccccc3)n2)n[nH]1 + COc1ccc(COc2ccc(Cc3cnc(N)nc3N)cc2OC)cc1 [GW2580] (first compound 0.04 µM, partner dose 1 µM)",94
18,"Cc1cn(-c2cc(NC(=O)c3ccc(C)c(Nc4nccc(-c5cccnc5)n4)c3)cc(C(F)(F)F)c2)cn1 [nilotinib] + COc1cc(N2CCC(N3CCN(C)CC3)CC2)ccc1Nc1ncc(Cl)c(Nc2ccccc2S(=O)(=O)C(C)C)n1 [NVP-TAE684] (first compound 0.2 µM, partner dose 0.08 µM)",86.4
19,"CC(C)C[C@H](NC(=O)[C@H](Cc1ccccc1)NC(=O)c1cnccn1)B(O)O [Bortezomib] + O=C1NC(=O)/C(=C/c2ccc(-c3ccc(F)cc3O)o2)S1 [AS252424] (first compound 0.001 µM, partner dose 1 µM)",79.6
20,"Cc1cc(Nc2cc(N3CCN(C)CC3)nc(/C=C/c3ccccc3)n2)n[nH]1 + CCCCCCCCCCCC1=C(O)C(=O)C=C(O)C1=O [Embelin] (first compound 0.04 µM, partner dose 1.2 µM)",82.3
21,"Cn1c(=O)n(-c2ccc(C(C)(C)C#N)cc2)c2c3cc(-c4cnc5ccccc5c4)ccc3ncc21 + Cc1cc(N2CCOCC2)cc2[nH]c(-c3c(NC[C@@H](O)c4cccc(Cl)c4)cc[nH]c3=O)nc12 [BMS536924] (first compound 0.004 µM, partner dose 0.2 µM)",85.4
22,"Cc1cc(Nc2cc(N3CCN(C)CC3)nc(/C=C/c3ccccc3)n2)n[nH]1 + C=CCn1c(=O)c2cnc(Nc3ccc(N4CCN(C)CC4)cc3)nc2n1-c1cccc(C(C)(C)O)n1 [MK1775] (first compound 0.04 µM, partner dose 0.02 µM)",67.8
23,"CC(C)C[C@H](NC(=O)[C@H](Cc1ccccc1)NC(=O)c1cnccn1)B(O)O [Bortezomib] + COC(=O)c1sccc1S(=O)(=O)Nc1ccc(Nc2ccccc2)cc1OC [GSK0660] (first compound 0.001 µM, partner dose 1 µM)",68.9
24,"Cc1cn(-c2cc(NC(=O)c3ccc(C)c(Nc4nccc(-c5cccnc5)n4)c3)cc(C(F)(F)F)c2)cn1 [nilotinib] + O=C(Nc1ccccc1)c1cc([N+](=O)[O-])ccc1Cl [GW9662] (first compound 0.2 µM, partner dose 2 µM)",86.9
25,"CC(C)C[C@H](NC(=O)[C@H](Cc1ccccc1)NC(=O)c1cnccn1)B(O)O [Bortezomib] + C=CCn1c(=O)c2cnc(Nc3ccc(N4CCN(C)CC4)cc3)nc2n1-c1cccc(C(C)(C)O)n1 [MK1775] (first compound 0.001 µM, partner dose 0.02 µM)",69.3
26,"Cc1cn(-c2cc(NC(=O)c3ccc(C)c(Nc4nccc(-c5cccnc5)n4)c3)cc(C(F)(F)F)c2)cn1 [nilotinib] + CN(C)S(=O)(=O)c1ccc2c(c1)/C(=C/c1cc3c([nH]1)CCCC3)C(=O)N2 [SU6656] (first compound 0.2 µM, partner dose 0.4 µM)",78.8
27,"Cc1cc(Nc2cc(N3CCN(C)CC3)nc(/C=C/c3ccccc3)n2)n[nH]1 + CC1(C)NC(=O)N(c2ccc([N+](=O)[O-])c(C(F)(F)F)c2)C1=O [nilutamide] (first compound 0.04 µM, partner dose 1 µM)",88.5
28,"Cn1c(=O)n(-c2ccc(C(C)(C)C#N)cc2)c2c3cc(-c4cnc5ccccc5c4)ccc3ncc21 + O=C(O)c1ccc(-c2c[nH]c3ncc(-c4ccccc4)cc23)cc1C1CCCC1 [GSK650394] (first compound 0.004 µM, partner dose 0.16 µM)",69.9
29,"Cc1cn(-c2cc(NC(=O)c3ccc(C)c(Nc4nccc(-c5cccnc5)n4)c3)cc(C(F)(F)F)c2)cn1 [nilotinib] + Cc1ccc(NC(=O)c2cccc(N(C)C)c2)cc1NC(=O)c1ccc(O)cc1 [ZM336372] (first compound 0.2 µM, partner dose 2 µM)",103
30,"Cc1cc(Nc2cc(N3CCN(C)CC3)nc(/C=C/c3ccccc3)n2)n[nH]1 + O=C(O)C(=O)Nc1sc2c(c1C(=O)O)CCNC2 [TCS401] (first compound 0.04 µM, partner dose 1.66667 µM)",90.5

# From the supplement of paper PMC4604168 (melanoma cell lines)
